# Test results reported in PubChem BioAssay AID1508624 (National Center for Advancing Translational Sciences (NCATS), 2021).
# About 120 (0.25%) of roughly 48,000 compounds were called active. Inconclusive results (about 4%) are left out. Calls come from the whole dose curve; as a rule, active = well fitted activation curve with a large enough effect; inconclusive = small, poorly fitted or top-dose-only effect, or another doubt; inactive = no such curve, though single readings can be large or run the other way. This is one part of the list.
# Assay: Primary qHTS for Identification of Small Molecule Activators of Huntingtin-Antisense Promoter Activity; note: nearly all actives have a fitted effect of over 55% in size
# Conditions: HEK293 HTT-AS promoter firefly luciferase reporter (activity 0% = vehicle and -100% = no light), 24 h; series mostly up to 57.5 µM; activity change, positive = activation: at the top concentration
# How it was run: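 Firefly luciferase readout (Dual-Glo, 10 min RT) after 24 h, 37 °C compound exposure (final up to 57.5 uM) of HEK293 reporter cells cultured 24 h beforehand; PTC124 at 50 uM final as control inhibitor; activity scaled vehicle 0%, zero RLU -100%.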
row,Structure (SMILES),"activity change, positive = activation"
1,Nc1nc2ccccc2n1Cc1ccc(F)cc1,inactive: -19.3%
2,COc1ccc(S(=O)(=O)n2nc(C)c(S(=O)(=O)N3CCC(C)CC3)c2C)cc1C,inactive: -5.49%
3,CCC(=O)Nc1c(C(=O)N2CCN(c3ccc(F)cc3)CC2)oc2ccccc12,inactive: -34.2%
4,CCN(CC)c1ccc(NS(=O)(=O)c2ccc(-c3cnc(C4CC4)o3)cc2)c(C)c1,inactive: -31.1%
5,CCCn1c(SCc2nc(-c3ccc(OC)cc3OC)no2)nnc1-c1ccc(Cl)cc1,inactive: -36.6%
6,Cc1cccc(C)c1NC(=O)CSc1nc(-c2ccccc2)nc2c1Cc1c(CO)cnc(C)c1O2,inactive: -5.48%
7,CCC1CN(C(=O)N2CCC(C(=O)NCCc3ccc(Cl)cc3)CC2)c2ccccc2O1 (configuration not stated),inactive: -45%
8,O=C1NCCN(Cc2ccc(F)cc2)C1=O,inactive: 0.657%
9,Cc1ccc(NC(=O)Cn2cc(C(=O)C3CC3)c3ccccc32)cc1,inactive: -11.1%
10,COc1ccc(NC(=O)Cn2nnc(C(=O)Nc3ccc(F)c(Cl)c3)c2N)cc1OC,inactive: -12.6%
11,Cn1c(SCc2ccc(F)cc2)nc2ccc(C(=O)NCc3ccc(Cl)cc3)cc21,inactive: -44.5%
12,COc1ccc(-c2noc(CN(C(=O)COc3cc(C)c(Br)c(C)c3)C(C)C)n2)cc1,inactive: -32.7%
13,CCOc1ccc(-c2nn(CC(=O)NC3CCCCC3)c3c2cnc2ccc(C)cc23)cc1,inactive: 0.31%
14,CCC(C(=O)OCCOCCN(CC)CC)c1ccccc1 (configuration not stated),inactive: -13.4%
15,CCCn1c2ccccc2c2cnn(CC(=O)NCCc3ccc(OCC)cc3)c(=O)c21,inactive: -30.4%
16,Cc1ccc(C(=O)NCCc2ccc(Cl)cc2)cc1-n1c(C)nc2cccnc21,inactive: -11.1%
17,COc1cc(-c2noc(-c3ccc(NCc4ccccc4)c([N+](=O)[O-])c3)n2)cc(OC)c1OC,inactive: -5.32%
18,CCOc1ccc(NC(=O)CCNS(=O)(=O)c2ccc3c(c2)oc(=O)n3C)cc1,inactive: -6.23%
19,COc1ccc(NC(=O)Cn2nnc3sc4c(c3c2=O)CCC(C)C4)c(OC)c1 (configuration not stated),inactive: -7.24%
20,COc1ccccc1CNC(=O)c1ccc2c(c1)N(Cc1cccc(C)c1)C(=O)c1ccccc1S2(=O)=O,inactive: -12.5%
21,COc1ccc(Cl)cc1NC(=O)c1sc(-n2nc(C)c(Cc3ccccc3)c2C)nc1C,inactive: 0.408%
22,Cc1ccc(C)c(Cn2c3ccccc3c3cnn(CC(=O)NCCC4=CCCCC4)c(=O)c32)c1,inactive: 3.91%
23,CCn1c(=O)c2cc(C(=O)N(CCN(C)C)Cc3ccccc3)sc2c2ccccc21,inactive: -9.82%
24,Cc1cc(C)cc(NC(=O)CSc2nc3c(oc4ccccc43)c(=O)n2-c2ccccc2F)c1,inactive: -17.9%
25,COc1ccc2cc3cc(C(=O)NCc4ccc(C)cc4)oc3nc2c1,inactive: -9.97%

row,Structure (SMILES),"activity change, positive = activation"
1,COc1ccc(OC)c(CCNC(=O)c2ccc3c(c2)N(Cc2ccc(C)cc2)CCS3)c1,inactive: -21.4%
2,COc1ccc(F)cc1S(=O)(=O)NCCc1c(C)[nH]c2c(Cl)cccc12,inactive: -20.7%
3,CCc1cccc(OCC(=O)Nc2ccc(S(=O)(=O)Nc3cc(C)nc(C)n3)cc2)c1,inactive: -16.3%
4,Cc1ccc(-c2nnc(Nc3ccc(O)cc3)c3ccccc23)cc1S(=O)(=O)N1CCN(C)CC1,inactive: -26.4%
5,COc1ccc(Nc2cc(C(=O)NCCc3ccc(C)cc3)c3ccccc3n2)c(OC)c1,inactive: -9.76%
6,CCOC(=O)N1CCC(NC(=O)c2c(C)nn(-c3ccc(C)cc3)c2-n2cccc2)CC1,inactive: -12.2%
7,CCOCCCNC(=O)C1CCN(c2nn3cc(-c4ccc(F)cc4)nc3s2)CC1,inactive: 14.7%
8,CCCCOc1ccc(C(=O)Nc2nnc3n2CCS3)cc1,inactive: -4.15%
9,O=C(Nc1cccc(C(=O)OCc2cc(=O)n3nc(C4CC4)sc3n2)c1)c1ccccc1,inactive: 0%
10,Cc1cc(C)cc(OC(C)C(=O)Nc2nonc2-c2ccc(Br)cc2)c1 (configuration not stated),inactive: -18.5%
11,Cc1ccccc1NC(=O)CSc1nnc(C)c(=O)[nH]1,inactive: -3.39%
12,O=C(NCc1ccco1)C1CCN(C(=O)N2CCOc3ccccc32)CC1,inactive: -2.44%
13,CCOc1cccc(CNC(=O)c2ccc(N3CCCC3)c(NC(=O)NCc3ccc(F)cc3)c2)c1,inactive: -8.03%
14,Cc1ccc(Cl)cc1N(C)C(=O)Cn1nc(Cc2cccnc2)c2ccccc2c1=O,inactive: -30%
15,CCN(CC)CCOC(=O)c1ccc(NC(=O)Cn2ncc3c([nH]c4ccc(C)cc43)c2=O)cc1,inactive: -20.2%
16,COCCn1c(CNC(=O)c2ccc(C)cc2)nc2cccnc21,inactive: 4.31%
17,Cc1ccc(-n2nc(C)c(C(=O)NCCCN3CCN(c4ccc(F)cc4)CC3)c2-n2cccc2)cc1,inactive: -52.7%
18,Cc1ccccc1CS(=O)(=O)CC1Nc2ccc(C(=O)NCc3ccc(Cl)cc3)cc2NC1=O (configuration not stated),inactive: -12.7%
19,CCOc1ccc(-c2nonc2NC(=O)c2oc3c(C)c(C)ccc3c2C)cc1OCC,inactive: -14%
20,Cc1ccc(C)c(Cn2c3ccccc3c3cnn(CC(=O)NCCCc4ccccc4)c(=O)c32)c1,inactive: -9.52%
21,CCOc1cc(C(=O)N2CC(=O)Nc3ccc(C)cc3C2c2ccccc2)cc(OCC)c1OCC (configuration not stated),inactive: -2.69%
22,COc1ccc(N2CCN(c3oc(/C=C/c4ccc(F)cc4)nc3C#N)CC2)cc1,inactive: 0.701%
23,COCCCNC(=O)CSC1=Nc2ccccc2C2=NC(CCC(=O)NCc3ccccc3OC)C(=O)N12 (configuration not stated),inactive: -7.21%
24,CCc1ccc(CN(Cc2ccco2)C(=O)c2ccc(OC)cc2)cc1,inactive: -14.6%
25,CCc1ccc(CNC(=O)CCC(=O)N2Cc3cccc(OC)c3Oc3ncccc32)cc1,inactive: -9.82%

row,Structure (SMILES),"activity change, positive = activation"
1,COC(=O)c1cccnc1,inactive: -2.74%
2,COc1ccc(NC(=O)CCN2CCN(CCO)CC2)cc1,inactive: -16.8%
3,CCN(c1cc(C)cc(C)c1)S(=O)(=O)c1nnc(NC(=O)c2ccco2)s1,inactive: -31%
4,COc1ccc2[nH]cc(CCNC(=O)c3cnn(-c4ccccc4Cl)c3C3CCN(C(=O)OC(C)(C)C)CC3)c2c1,inactive: -47.6%
5,O=C(O)CCCCC(=O)O,inactive: -0.502%
6,Cc1nc2c(C(=O)NCCc3ccccc3)c[nH]n2c(=O)c1Cc1ccc(F)cc1Cl,inactive: -29.5%
7,Cc1ccc(NC(=O)Cn2nnc(-c3nc(-c4ccc(Cl)cc4)no3)c2N)cc1C,inactive: 6.63%
8,Cc1ccc(Nc2sc(C(=O)c3ccccc3)c(N)c2S(=O)(=O)c2ccccc2)c(C)c1,inactive: -21.5%
9,COc1ccccc1N1CCN(C(=O)Cn2c(=O)n3nc(-c4cccc(C)c4)nc3c3ccccc32)CC1,inactive: -2.12%
10,COc1ccc(CCNC(=O)c2c(C)nn(-c3ccc(F)cc3)c2-n2cccc2)c(OC)c1OC,inactive: -35.3%
11,CCCSc1ncc(Cl)c(C(=O)Nc2c(C(=O)c3ccc(F)cc3)oc3ccccc23)n1,inactive: -8.22%
12,COc1ccc(-n2ncc(C(=O)Nc3ccc4c(c3)OCCO4)c2C2CCN(C(=O)OC(C)(C)C)CC2)cc1,inactive: -41.9%
13,CCOc1ccc(CNC(=O)C2CCCN(S(=O)(=O)N(CC)c3ccc(OCC)cc3)C2)cc1 (configuration not stated),inactive: -51.6%
14,CCN(C(=O)Cn1nc(Cc2ccncc2)c2ccccc2c1=O)c1cccc(C(F)(F)F)c1,inactive: -13.7%
15,CC(C)Cn1c(=O)c2ccccc2n2c(CCC(=O)Nc3ccc(F)c(F)c3)nnc12,inactive: 1.1%
16,Cc1ccc(S(=O)(=O)N2CCC(C(=O)Nc3ccc(Oc4ccccc4)cc3)CC2)cc1,inactive: -8.79%
17,O=C(NCCc1ccccc1)c1ccc2c(c1)CCN2S(=O)(=O)c1ccccc1,inactive: 8.68%
18,CC(C)CSc1ccccc1NC(=O)c1sc2nc(-c3ccncc3)ccc2c1N,inactive: -14.1%
19,CCOC(=O)c1c(NC(=O)C(C)Oc2ccc(Cl)c(C)c2)sc2c1CCCC2 (configuration not stated),inactive: -8.84%
20,Cc1cc(C)cc(NC(=O)CN2C(=O)CCc3cc(S(=O)(=O)N4CCCCC4)ccc32)c1,inactive: -28.6%
21,O=C(Cn1cc(S(=O)(=O)Cc2ccccc2F)c2ccccc21)NCc1ccccc1Cl,inactive: -12.3%
22,Cc1nn2c(=O)cc(COC(=O)c3ccc(NC(=O)c4cccs4)cc3)nc2s1,inactive: -53.7%
23,CCc1ccc(NC(=O)CCCn2nc(C)c3c(C)n(-c4ccccc4)nc3c2=O)cc1,inactive: 0.531%
24,CC(C)CC(C(=O)NCCc1ccccc1)N1Cc2ccccc2C1=O (configuration not stated),inactive: -12.8%
25,CCCSc1nnc2n(-c3ccc(OC)cc3)c(=O)c3c4c(sc3n12)COC(C(C)C)C4 (configuration not stated),inactive: 3.74%

row,Structure (SMILES),"activity change, positive = activation"
1,CC(O)C(=O)O (configuration not stated),inactive: 0.907%
2,Cc1nn(C(C)(C)C)c(OC(=O)c2cccc(F)c2)c1Sc1ccccc1,inactive: -21.8%
3,CN(C)CCOC(c1ccccc1)c1ccccc1,inactive
4,CCOc1ccc(CNC(=O)C2CCN(Cc3cc4ccccc4n3Cc3ccccc3C)CC2)cc1,inactive: -17.1%
5,CC(=O)Nc1ccc2nc(SCCOc3ccccc3)sc2c1,inactive: 16.4%
6,C[C@H]1C[C@@H]2[C@@H]([C@@H](O)C[C@@]3(C)[C@H]2CC[C@]3(O)C(=O)CO)[C@@]2(C)C=CC(=O)C=C12,inactive: -20.3%
7,Cc1ccc(NC(=O)C(=O)NCCCN2CCOCC2)cc1C,inactive: 2.02%
8,Cc1cccc(NC(=O)C2(C)Cc3ccccc3C(=O)O2)c1 (configuration not stated),inactive: -5.09%
9,Cc1c(CNC2CCCCCC2)c(C(=O)O)c(C)n1Cc1ccc(F)cc1,inactive: -18.8%
10,CCc1ccc(CN(Cc2ccco2)C(=O)COc2ccc(Cl)cc2C)cc1,inactive: -27.9%
11,Cc1ccc(OCC(=O)Nc2cc(-c3cccc(C)c3)nn2-c2ccccc2)cc1,inactive: 27.7%
12,CCOc1ccccc1C(=O)Nc1cc2c(cc1N1CCOCC1)n(C)c(=O)n2C,inactive: -8.47%
13,Cc1ccc(CCNC(=O)c2ccc3c(c2)c(C)c(C)n3Cc2ccccc2)cc1,inactive: -26.1%
14,Cc1ccc2nc(N(Cc3cccnc3)C(=O)c3cccs3)sc2c1,inactive: 19.3%
15,NC(=S)N/N=C/c1cccnc1,inactive: -1.95%
16,CCCn1c(CCC(=O)Nc2cccc(CC)c2)nc2cccnc21,inactive: -25.6%
17,COc1ccc(-n2c(=O)c3sc4ccccc4c3n(CC(=O)NCc3ccccc3)c2=O)cc1,inactive: -2.63%
18,Cc1ccccc1CNC(=O)c1ccc(CS(=O)Cc2ccc(Cl)cc2)o1 (configuration not stated),inactive: -20%
19,O=[N+]([O-])c1cc(-c2nc(-c3ccccc3)no2)ccc1NCCc1ccccc1,inactive: -6.92%
20,CCOc1ccc(N2CC(c3nc4ccccc4n3Cc3cccc(C)c3)CC2=O)cc1 (configuration not stated),inactive: -22%
21,CCn1c(CC2C(=O)N(C)c3ccccc32)nc2ccccc2c1=O (configuration not stated),inactive: 5.57%
22,O=C(Nc1cccc(F)c1)[C@@H](c1ccccc1)N1Cc2ccccc2C1=O,inactive: -13.4%
